Measurements reported in PMC4104028.
No constants are given. Whether binding was seen depends on the method and setting. In cells and extracts the contact can be indirect. Some results given as binding are weak or reduced against the parent protein; the word gives no strength. For part of these data: Tags and fused reporters may be left off the sequences shown. Blank lines part the entries; values can stand above or below the substance they belong to.

Amino acid sequences for entries named in this document (tags omitted). A change or cut given only in a name is not applied to a line headed by its entry. Chains listed by the source or under a name are the forms on record and can include a tag or linker. Residues count along the entry.
UniProt Q8C0J2: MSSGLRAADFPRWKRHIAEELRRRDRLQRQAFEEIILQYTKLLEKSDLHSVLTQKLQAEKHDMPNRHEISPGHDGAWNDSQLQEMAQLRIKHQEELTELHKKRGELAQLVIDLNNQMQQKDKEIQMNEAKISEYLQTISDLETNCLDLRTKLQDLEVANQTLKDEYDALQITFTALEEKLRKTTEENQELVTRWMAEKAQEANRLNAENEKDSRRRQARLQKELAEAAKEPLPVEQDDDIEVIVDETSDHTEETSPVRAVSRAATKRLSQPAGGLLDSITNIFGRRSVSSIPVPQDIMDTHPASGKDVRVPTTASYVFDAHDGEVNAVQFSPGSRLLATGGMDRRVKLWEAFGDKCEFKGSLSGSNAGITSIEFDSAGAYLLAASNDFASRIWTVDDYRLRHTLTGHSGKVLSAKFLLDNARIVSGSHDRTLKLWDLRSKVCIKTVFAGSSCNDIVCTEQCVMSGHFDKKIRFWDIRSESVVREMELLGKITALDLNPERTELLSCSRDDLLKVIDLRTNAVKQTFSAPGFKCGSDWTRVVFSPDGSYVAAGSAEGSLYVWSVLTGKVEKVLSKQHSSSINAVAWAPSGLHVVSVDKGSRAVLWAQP
in vitro translated 35S-labeled FLAG-Atg16L1 1–265: residues 1-265 of Q8C0J2
in vitro translated 35S-labeled FLAG-Atg16L1 1–230: residues 1-230 of Q8C0J2
in vitro translated 35S-labeled FLAG-Atg16L1 1–207: residues 1-207 of Q8C0J2
FLAG-Atg16L1 full-length (FL) (Q8C0J2-3, form named): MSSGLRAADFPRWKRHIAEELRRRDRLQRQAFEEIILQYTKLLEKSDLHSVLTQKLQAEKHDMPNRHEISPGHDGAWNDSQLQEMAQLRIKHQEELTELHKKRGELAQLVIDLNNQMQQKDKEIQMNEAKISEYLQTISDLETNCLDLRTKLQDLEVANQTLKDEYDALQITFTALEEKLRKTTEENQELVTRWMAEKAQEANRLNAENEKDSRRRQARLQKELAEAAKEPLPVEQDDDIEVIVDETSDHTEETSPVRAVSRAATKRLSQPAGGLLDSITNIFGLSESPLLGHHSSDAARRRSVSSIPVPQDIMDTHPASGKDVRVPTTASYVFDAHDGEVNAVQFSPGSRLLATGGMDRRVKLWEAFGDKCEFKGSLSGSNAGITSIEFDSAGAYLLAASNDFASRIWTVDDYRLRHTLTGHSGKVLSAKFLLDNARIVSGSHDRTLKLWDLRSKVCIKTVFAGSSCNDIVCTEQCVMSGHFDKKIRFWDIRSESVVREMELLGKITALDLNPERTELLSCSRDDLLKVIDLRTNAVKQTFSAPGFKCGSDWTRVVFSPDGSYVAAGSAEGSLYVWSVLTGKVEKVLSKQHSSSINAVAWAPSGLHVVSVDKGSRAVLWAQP
FLAG-Atg16L1 D237R D239R (DRDR) (not stated (human or mouse cDNA cloned)) (Q8C0J2-3, form named): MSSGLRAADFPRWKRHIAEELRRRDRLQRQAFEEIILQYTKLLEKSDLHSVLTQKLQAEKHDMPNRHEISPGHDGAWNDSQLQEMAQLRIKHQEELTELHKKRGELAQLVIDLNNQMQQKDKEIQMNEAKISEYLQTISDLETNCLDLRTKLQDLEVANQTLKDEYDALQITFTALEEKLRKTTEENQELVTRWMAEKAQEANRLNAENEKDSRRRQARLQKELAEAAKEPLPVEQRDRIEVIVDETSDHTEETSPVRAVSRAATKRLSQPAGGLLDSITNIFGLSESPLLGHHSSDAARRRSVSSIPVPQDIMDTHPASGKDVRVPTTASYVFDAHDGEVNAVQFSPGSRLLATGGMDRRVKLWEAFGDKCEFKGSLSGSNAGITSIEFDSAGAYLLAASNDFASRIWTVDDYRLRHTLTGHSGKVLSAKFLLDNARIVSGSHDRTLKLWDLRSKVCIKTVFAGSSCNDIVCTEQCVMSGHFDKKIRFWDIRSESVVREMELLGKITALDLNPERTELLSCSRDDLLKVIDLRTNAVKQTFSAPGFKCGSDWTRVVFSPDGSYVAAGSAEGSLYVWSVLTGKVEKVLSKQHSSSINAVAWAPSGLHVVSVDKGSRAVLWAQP
FLAG-Atg16L1 E226R E230R (ERER) (not stated (human or mouse cDNA cloned)) (Q8C0J2-3, form named): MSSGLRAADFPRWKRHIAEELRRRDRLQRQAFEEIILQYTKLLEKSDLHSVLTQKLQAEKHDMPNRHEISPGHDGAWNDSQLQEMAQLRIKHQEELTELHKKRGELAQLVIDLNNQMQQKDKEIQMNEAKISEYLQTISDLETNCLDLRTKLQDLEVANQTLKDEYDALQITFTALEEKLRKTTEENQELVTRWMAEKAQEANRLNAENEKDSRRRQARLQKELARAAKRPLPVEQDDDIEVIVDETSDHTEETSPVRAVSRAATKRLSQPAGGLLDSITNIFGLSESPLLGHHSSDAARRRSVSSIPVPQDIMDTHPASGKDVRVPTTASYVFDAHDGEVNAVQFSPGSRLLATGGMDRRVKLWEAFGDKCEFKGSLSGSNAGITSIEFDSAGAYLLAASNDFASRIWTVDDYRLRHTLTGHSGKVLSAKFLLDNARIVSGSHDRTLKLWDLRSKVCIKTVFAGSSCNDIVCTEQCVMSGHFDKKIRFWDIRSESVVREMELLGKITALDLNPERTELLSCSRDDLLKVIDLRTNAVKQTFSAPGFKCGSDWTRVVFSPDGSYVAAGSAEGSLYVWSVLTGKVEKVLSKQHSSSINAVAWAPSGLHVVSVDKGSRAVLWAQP
FLAG-Atg16L1 E226R (not stated (human or mouse cDNA cloned)) (Q8C0J2-3, form named): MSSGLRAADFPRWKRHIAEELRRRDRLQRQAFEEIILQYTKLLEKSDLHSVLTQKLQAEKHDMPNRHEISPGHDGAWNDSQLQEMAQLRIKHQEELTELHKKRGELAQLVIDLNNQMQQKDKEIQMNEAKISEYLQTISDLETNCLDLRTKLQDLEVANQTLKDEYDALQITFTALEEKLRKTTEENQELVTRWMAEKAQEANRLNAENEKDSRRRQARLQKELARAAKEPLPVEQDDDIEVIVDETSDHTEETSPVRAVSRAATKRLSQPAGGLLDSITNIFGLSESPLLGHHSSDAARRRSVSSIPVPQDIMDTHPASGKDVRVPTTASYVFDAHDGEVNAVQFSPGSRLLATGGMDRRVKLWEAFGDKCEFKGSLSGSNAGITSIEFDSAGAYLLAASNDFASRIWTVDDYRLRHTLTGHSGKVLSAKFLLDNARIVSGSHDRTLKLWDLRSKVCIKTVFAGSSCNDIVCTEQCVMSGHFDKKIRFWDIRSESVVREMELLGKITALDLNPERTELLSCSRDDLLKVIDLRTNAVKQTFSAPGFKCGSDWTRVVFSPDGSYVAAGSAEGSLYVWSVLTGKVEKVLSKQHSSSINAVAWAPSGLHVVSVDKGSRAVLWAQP
FLAG-Atg16L1 E208R (not stated (human or mouse cDNA cloned)) (Q8C0J2-3, form named): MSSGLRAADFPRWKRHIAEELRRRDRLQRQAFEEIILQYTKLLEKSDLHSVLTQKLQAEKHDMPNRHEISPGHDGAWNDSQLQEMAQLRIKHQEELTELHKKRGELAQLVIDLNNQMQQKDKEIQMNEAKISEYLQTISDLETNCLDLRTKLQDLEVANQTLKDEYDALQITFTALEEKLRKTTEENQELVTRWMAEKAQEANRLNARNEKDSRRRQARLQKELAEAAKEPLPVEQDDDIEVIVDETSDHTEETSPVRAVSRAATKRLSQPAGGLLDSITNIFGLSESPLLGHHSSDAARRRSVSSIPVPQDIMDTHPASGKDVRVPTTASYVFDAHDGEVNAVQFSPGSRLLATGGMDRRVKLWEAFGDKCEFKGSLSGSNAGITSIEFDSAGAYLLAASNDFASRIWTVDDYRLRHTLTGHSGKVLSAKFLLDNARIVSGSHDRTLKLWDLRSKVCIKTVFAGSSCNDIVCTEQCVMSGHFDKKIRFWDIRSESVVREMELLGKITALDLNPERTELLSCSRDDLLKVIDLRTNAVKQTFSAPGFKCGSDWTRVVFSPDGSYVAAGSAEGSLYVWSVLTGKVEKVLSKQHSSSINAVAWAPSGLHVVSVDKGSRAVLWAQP
FLAG-Atg16L1 D212R (not stated (human or mouse cDNA cloned)) (Q8C0J2-3, form named): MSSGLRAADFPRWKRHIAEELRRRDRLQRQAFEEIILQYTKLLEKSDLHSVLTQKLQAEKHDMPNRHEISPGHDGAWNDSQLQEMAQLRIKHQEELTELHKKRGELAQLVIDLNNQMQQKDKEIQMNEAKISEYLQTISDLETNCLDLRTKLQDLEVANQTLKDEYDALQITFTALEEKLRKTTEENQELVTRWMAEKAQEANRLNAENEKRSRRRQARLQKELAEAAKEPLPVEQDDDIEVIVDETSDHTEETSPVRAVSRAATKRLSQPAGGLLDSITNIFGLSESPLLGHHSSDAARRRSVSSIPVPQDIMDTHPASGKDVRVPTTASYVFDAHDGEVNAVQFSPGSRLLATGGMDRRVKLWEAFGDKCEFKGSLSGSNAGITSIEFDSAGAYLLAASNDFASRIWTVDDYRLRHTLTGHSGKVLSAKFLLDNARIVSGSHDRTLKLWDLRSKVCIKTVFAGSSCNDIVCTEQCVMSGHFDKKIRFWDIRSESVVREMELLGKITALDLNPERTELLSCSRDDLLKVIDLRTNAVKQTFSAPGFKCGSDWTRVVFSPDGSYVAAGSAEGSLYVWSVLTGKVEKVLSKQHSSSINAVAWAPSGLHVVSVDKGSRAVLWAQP
FLAG-Atg16L1 E230R (not stated (human or mouse cDNA cloned)) (Q8C0J2-3, form named): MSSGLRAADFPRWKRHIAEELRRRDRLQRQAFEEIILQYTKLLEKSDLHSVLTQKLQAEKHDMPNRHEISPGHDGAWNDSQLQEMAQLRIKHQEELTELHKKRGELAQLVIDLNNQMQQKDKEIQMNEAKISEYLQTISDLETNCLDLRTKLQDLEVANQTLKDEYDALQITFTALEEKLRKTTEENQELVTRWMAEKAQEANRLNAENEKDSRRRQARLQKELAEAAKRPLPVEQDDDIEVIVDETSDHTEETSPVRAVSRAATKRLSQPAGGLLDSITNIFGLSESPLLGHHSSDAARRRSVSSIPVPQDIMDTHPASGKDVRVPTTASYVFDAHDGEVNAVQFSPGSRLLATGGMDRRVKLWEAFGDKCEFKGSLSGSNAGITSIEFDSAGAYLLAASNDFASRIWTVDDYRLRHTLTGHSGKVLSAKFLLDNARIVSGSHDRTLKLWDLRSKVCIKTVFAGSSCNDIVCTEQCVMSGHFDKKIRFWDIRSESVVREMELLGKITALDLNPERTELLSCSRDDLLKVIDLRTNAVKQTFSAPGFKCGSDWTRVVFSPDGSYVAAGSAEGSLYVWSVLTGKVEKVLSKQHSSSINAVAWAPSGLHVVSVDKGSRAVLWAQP
UniProt Q8TDY2: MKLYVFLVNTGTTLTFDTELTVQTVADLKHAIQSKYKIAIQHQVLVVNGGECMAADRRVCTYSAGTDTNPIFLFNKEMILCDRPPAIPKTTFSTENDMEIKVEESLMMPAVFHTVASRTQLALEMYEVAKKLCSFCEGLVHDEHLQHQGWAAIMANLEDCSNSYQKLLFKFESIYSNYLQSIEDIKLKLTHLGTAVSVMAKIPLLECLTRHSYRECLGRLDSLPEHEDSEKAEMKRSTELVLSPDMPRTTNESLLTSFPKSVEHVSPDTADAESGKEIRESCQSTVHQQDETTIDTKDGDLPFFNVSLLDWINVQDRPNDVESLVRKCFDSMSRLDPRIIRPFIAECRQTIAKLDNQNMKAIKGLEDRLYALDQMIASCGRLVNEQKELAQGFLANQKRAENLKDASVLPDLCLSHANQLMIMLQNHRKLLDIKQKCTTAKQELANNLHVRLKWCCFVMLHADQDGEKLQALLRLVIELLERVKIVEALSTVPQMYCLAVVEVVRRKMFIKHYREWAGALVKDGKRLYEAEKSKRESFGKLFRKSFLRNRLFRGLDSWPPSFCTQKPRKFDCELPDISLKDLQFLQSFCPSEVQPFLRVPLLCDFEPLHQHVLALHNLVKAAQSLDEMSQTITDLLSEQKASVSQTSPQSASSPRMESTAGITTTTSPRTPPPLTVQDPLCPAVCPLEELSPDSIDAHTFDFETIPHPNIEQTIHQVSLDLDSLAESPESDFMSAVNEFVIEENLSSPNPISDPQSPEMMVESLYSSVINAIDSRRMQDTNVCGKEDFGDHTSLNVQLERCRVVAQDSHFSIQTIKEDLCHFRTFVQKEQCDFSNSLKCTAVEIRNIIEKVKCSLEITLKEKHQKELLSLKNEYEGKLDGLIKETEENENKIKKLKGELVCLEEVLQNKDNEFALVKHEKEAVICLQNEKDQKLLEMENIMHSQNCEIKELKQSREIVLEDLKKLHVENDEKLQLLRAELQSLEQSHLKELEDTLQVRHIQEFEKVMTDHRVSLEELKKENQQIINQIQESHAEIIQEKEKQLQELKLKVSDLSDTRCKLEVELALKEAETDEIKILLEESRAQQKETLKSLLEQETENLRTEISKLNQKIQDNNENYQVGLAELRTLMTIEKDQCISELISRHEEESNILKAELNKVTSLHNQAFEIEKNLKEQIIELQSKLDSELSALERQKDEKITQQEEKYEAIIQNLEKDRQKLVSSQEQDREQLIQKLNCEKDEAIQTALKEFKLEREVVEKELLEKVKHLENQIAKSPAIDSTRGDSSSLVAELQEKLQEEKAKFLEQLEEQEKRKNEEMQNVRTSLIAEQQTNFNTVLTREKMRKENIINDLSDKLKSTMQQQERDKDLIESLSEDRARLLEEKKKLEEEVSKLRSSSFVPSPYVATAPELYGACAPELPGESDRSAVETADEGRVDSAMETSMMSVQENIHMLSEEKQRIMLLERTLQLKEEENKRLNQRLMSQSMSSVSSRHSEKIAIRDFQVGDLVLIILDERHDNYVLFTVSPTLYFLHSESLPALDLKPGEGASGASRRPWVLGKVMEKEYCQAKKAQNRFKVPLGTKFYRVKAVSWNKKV

Columns and labels:
GFP-WIPI1a [1] = target: T1, GFP-WIPI1a (UniProt Q5MNZ9); test: co-IP; lysates of HEK293A cells expressing GFP-tagged WIPI proteins mixed with lysates of HEK293A cells expressing FLAG-Atg16L1, its mutants or Atg16L2; GFP-TRAP; immunoblot
T1 sequence: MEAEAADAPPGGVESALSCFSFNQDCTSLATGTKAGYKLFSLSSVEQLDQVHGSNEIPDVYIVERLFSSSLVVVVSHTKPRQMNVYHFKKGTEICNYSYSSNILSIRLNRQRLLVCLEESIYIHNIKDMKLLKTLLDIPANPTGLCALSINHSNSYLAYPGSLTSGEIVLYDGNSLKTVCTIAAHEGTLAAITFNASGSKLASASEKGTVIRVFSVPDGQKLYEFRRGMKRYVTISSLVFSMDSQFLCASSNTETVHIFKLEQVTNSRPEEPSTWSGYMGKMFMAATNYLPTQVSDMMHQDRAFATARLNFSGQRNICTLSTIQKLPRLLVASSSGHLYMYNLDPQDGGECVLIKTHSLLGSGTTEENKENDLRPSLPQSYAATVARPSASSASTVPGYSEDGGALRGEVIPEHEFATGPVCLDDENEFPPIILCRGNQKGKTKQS

GFP-WIPI1a [2] = target: T1, GFP-WIPI1a; test: co-IP; GFP-Trap from lysates of HEK293A cells stably or transiently expressing GFP-tagged WIPI proteins; endogenous partners by immunoblot; full medium or EBSS 2 hr in Figure 1A
GFP-WIPI4 = target: T2, GFP-WIPI4 (UniProt Q9Y484); test: as above
T2 sequence: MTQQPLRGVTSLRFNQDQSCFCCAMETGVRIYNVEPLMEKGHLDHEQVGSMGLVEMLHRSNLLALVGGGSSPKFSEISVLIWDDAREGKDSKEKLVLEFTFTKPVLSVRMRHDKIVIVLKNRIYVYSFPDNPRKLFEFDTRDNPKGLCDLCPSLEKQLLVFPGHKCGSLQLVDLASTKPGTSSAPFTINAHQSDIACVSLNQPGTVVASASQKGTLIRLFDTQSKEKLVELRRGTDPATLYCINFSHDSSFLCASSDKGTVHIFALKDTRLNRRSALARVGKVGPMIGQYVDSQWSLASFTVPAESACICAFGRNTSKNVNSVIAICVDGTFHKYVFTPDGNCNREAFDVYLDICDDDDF

[3] = target: FLAG-Atg16L1 D237R D239R (DRDR) (not stated (human or mouse cDNA cloned)) (UniProt Q8C0J2); test: co-IP; HEK293 cells stably expressing GFP-WIPI2b, transiently transfected with FLAG-Atg16L1 WT, ERER or DRDR; bound and input by immunoblot; which tag was precipitated is not told
[4] = target: FLAG-Atg16L1 full-length (FL) (mouse) (UniProt Q8C0J2); test: as above
[5] = target: FLAG-Atg16L1 E226R E230R (ERER) (not stated (human or mouse cDNA cloned)) (UniProt Q8C0J2); test: as above
[6] = target: FLAG-Atg16L1 E226R (not stated (human or mouse cDNA cloned)) (UniProt Q8C0J2); test: co-IP; lysates of HEK293A cells transiently expressing FLAG-Atg16L2, FLAG-Atg16L1 or mutants; FLAG M2 agarose beads; endogenous FIP200 by immunoblot
[7] = target: FLAG-Atg16L1 full-length (FL) (mouse) (UniProt Q8C0J2); test: as above
FLAG-Atg16L2 = target: T3, FLAG-Atg16L2 (UniProt Q6KAU8); test: as above
T3 sequence: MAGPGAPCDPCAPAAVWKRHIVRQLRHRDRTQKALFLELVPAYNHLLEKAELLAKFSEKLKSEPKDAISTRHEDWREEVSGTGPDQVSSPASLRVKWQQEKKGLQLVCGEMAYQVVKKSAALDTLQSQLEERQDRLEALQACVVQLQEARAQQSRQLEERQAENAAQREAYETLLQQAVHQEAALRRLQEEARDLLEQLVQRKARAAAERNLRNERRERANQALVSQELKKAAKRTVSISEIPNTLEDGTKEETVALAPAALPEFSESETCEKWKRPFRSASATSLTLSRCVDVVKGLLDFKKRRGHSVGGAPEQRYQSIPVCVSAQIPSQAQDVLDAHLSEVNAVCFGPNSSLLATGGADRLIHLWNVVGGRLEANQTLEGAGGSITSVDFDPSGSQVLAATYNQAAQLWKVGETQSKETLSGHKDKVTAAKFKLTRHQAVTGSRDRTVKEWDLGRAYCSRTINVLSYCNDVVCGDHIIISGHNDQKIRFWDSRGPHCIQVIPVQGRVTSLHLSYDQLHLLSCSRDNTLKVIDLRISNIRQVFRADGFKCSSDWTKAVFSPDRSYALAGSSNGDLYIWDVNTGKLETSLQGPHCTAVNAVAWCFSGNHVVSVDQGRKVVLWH

[8] = target: FLAG-Atg16L1 E208R (not stated (human or mouse cDNA cloned)) (UniProt Q8C0J2); test: as above
[9] = target: FLAG-Atg16L1 D212R (not stated (human or mouse cDNA cloned)) (UniProt Q8C0J2); test: as above
[10] = target: FLAG-Atg16L1 E230R (not stated (human or mouse cDNA cloned)) (UniProt Q8C0J2); test: as above
GFP-WIPI1a [11] = target: T1, GFP-WIPI1a; test: pull-down; GFP-tagged proteins expressed in HEK293A, isolated on GFP-TRAP, incubated with in vitro translated 35S-labeled FLAG-Atg16L1 constructs, washed; autoradiography; only the target purified

Substance: endogenous Atg16L1 (HEK293A) (from UniProt Q676U5 1-607)
binding (GFP-WIPI1a [2]): no binding
binding (GFP-WIPI4): no binding

Substance: in vitro translated 35S-labeled FLAG-Atg16L1 1–265 (from UniProt Q8C0J2-3 1-265) (domain or fragment)
binding (GFP-WIPI1a [11]): binds weakly

More lines, now with the values ahead:

binding (GFP-WIPI1a [1]): binds weakly
Substance: FLAG-Atg16L1 full-length (FL) (from UniProt Q8C0J2-3 1-623)

binding [3]: no binding
binding [4]: binds
binding [5]: binds
binding [6]: binds
binding [7]: binds
binding (FLAG-Atg16L2): no binding
binding [8]: binds
binding [9]: binds
binding [10]: binds
Substance: endogenous FIP200 (HEK293A) (from UniProt Q8TDY2 1-1594)

binding (GFP-WIPI1a [11]): no binding
Substance: in vitro translated 35S-labeled FLAG-Atg16L1 1–207 (from UniProt Q8C0J2-3 1-207) (domain or fragment)

binding (GFP-WIPI1a [11]): binds
Substance: in vitro translated 35S-labeled FLAG-Atg16L1 1–230 (from UniProt Q8C0J2-3 1-230) (domain or fragment)
